Measured values taken from ChEMBL document CHEMBL1201862, “PubChem BioAssay data set” (2004).
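Compound exposure: 48 hours, 5 concentrations, 96-well plates. Abbreviation: GI50, concentration required for 50% inhibition of growth.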 Active and inactive are the calls of the source. Cut-off read from the data, not from the text of the source: active = GI50 up to about 1.1 µM and inactive = higher.

What follows are compounds tested on NCI-H322M (assay: DTP human tumour cell line panel, 48 h).

SMILES	GI50
O=C(CCN1CCCCC1CO)Nc1ccc2c(c1)C(=O)c1ccc(NC(=O)CCN3CCCCC3CO)cc1C2=O (stereo not given)	inactive: 7.06 µM
Oc1cccc(Nc2cc(O)nc(O)n2)c1	inactive: > 100 µM
COc1ccc2oc(=O)c(-c3nc4ccccc4o3)cc2c1	inactive: > 100 µM
CN(C)CN1CSC(=S)N(CN(C)C)C1	inactive: > 100 µM
O=C(O)CSc1ccc(N=C=S)cc1	inactive: 81.1 µM
COc1ccc2c(c1)CCc1c-2nc2cc3c(cc2c1O)OCO3	inactive: > 100 µM
c1ccc2sc(SCCSc3nc4ccccc4s3)nc2c1	inactive: > 100 µM
Oc1ccc(-c2ccccc2)nn1	inactive: > 100 µM
N=C1OC(CN2CCN(c3ccccc3)CC2)CN1C(=O)Nc1ccccc1 (stereo not given)	inactive: > 100 µM
Cc1ccc2c(c1)C(=O)c1[nH]c3ccc(F)cc3c1CO2	inactive: 59.4 µM
CC1=C([S+]([O-])c2ccc(C)cc2)CCC2(CCCCO2)O1 (stereo not given)	inactive: > 100 µM
Nc1nc(Nc2ccc(Cl)cc2)sc1C(=O)c1cccs1	inactive: 16 µM
O=C(Nc1ccc(S(=O)(=O)N[C@@H](C(=O)O)c2ccccc2)cc1)c1ccc(F)cc1	inactive: > 100 µM
CC(C)(C)C(=O)OCOP(=O)(OCOC(=O)C(C)(C)C)OCC1OC(n2ccc(=O)[nH]c2=O)C(N=[N+]=[N-])C1O (stereo not given)	inactive: 6.28 µM
Cc1nc2c(c(=O)[nH]1)S/C(=C(/C#N)c1nc3ccccc3[nH]1)N2c1ccccc1	inactive: > 100 µM
O=[N+]([O-])c1ccc(-n2nnc(C3=NCCN3)c2-c2ccccc2)cc1	inactive: > 100 µM
O=C(CCCCCCCCC(=O)NN1C(=O)/C(=C\c2ccc(O)c(O)c2)SC1c1c(O)ccc2ccccc12)NN1C(=O)C(=Cc2ccc(O)c(O)c2)SC1c1c(O)ccc2ccccc12 (stereo not given)	inactive: 3.01 µM
Cn1c(COC(=O)NC2CCCCC2)c(COC(=O)NC2CCCCC2)c2ccc3cc(Cl)c(Cl)cc3c21	inactive: 40.6 µM
CCN(CC)CCCNc1c2c(Cl)cc(Cl)cc2nc2nc(O)nc(C)c12	inactive: 69 µM
CCN(CC)N1C(=O)[N-][N+](CC)(CC)C1=O	inactive: > 100 µM
COC(=O)C1=C(C)NC2=C(C(=O)c3ccccc32)C1c1cn(-c2ccccc2)nc1-c1ccccc1 (stereo not given)	inactive: > 100 µM
CC(N)(CC(O)(C(F)(F)Cl)C(F)(F)Cl)C(=O)O (stereo not given)	inactive: > 10 µM
CCC(O)CC1OC2(CCC1C)CC1OC(=O)/C=C\C(C)(O)C(O)C(C)C(O)C(OC3CC(OC)C(O)C(C)O3)C(O)C(C)(O)CCC/C=C/C3CC(C)COC3(O)CC(O2)C1C (stereo not given)	inactive: 26.3 µM

SMILES	GI50
CC(Cc1ccc(O)cn1)(NC(=O)c1ccccc1)C(=O)O (stereo not given)	inactive: > 100 µM
Clc1ccccc1/C=c1\nc(-c2ccccc2)n2c1nc1ccccc12	inactive: 27.9 µM
CN(C)CCN(c1ccccn1)c1ccccn1	inactive: > 100 µM
CC(=O)O[C@H]1CC[C@@]2(C)[C@@H](CC[C@@H]3[C@@H]2CC(=O)[C@@]2(C)[C@H]3C[C@@H]3CC(C)=CC(=O)[C@@H]32)C1	inactive: 50.1 µM
Clc1ccc(-c2nn3c(-c4ccncc4)nnc3s2)cc1	inactive: > 100 µM
CN(C)CCn1c(=O)nc2c3c(c([N+](=O)[O-])ccc31)Nc1ccc(O)cc1-2	inactive: 3.86 µM
[N-]=[N+]=CC(=O)OC1CCc2ccccc21 (stereo not given)	inactive: > 100 µM
O=[N+]([O-])c1cccc(/C=N/N=c2\ccc3ccccc3[nH]2)c1O	inactive: 1.77 µM
COc1ccc(-n2c3c(c4cc(O)ccc42)C(=O)c2ccccc2C3=O)cc1	inactive: 3.3 µM
COc1cc(OC)c2nc(C)c3c(c2c1)SCC3	inactive: 23.6 µM
CC1CC(Nc2ccc(Br)cc2)N(C(=O)c2ccc(Br)cc2)O1 (stereo not given)	inactive: > 10 µM
CCn1c(CCl)nc2c1C(=O)c1ccccc1C2=O	inactive: 3.48 µM
Cc1csc2c(=O)n(C3OC(CO)C(O)C3O)c(=O)[nH]c12 (stereo not given)	inactive: > 100 µM
CC[N+]1(C)CCC(O)(/C=C/c2ccc(OC)cc2)C(C(=O)/C=C/c2ccc(OC)cc2)C1 (stereo not given)	inactive: 18.1 µM
N#CC1=C(Cl)NC(Cl)=C(C#N)C1c1ccc(Cl)cc1	inactive: 35.7 µM
COc1ccc(C(C)NNC(=O)c2ccncc2)c(OC)c1 (stereo not given)	inactive: > 100 µM
O=C(O)/C(Cl)=C(Cl)/C=N/NC(=O)c1cc2ccccc2cc1O	inactive: 25.8 µM
CCOC(=O)Cc1nc2c(N)ncnc2n1C1OC(COC(C)=O)C(OC(C)=O)C1OC(C)=O (stereo not given)	inactive: > 100 µM
COc1ccc(/C=C2\CCC(Cc3ccccc3)(CN(C)C)C2=O)cc1 (stereo not given)	inactive: > 100 µM
COC(=O)[C@]1(C)CCC[C@@]2(C)[C@@H]3C[C@@H]4[C@H]5C[C@@]3(CC[C@@H]21)C[C@@]45C	inactive: 21.3 µM
COCN1C(=O)[C@@H]2CCCN2C(=O)c2ccc([N+](=O)[O-])cc21	inactive: > 100 µM
CCN(CC)CC(C(=O)Nc1c(C)cccc1C)/C(C)=N\NC(=O)c1ccncc1 (stereo not given)	inactive: > 100 µM
